In all, about 310,000 compounds went through this assay and about 14,000 (4.5%) showed an effect of 50% or more. Effects have a minus sign here. Some of the results follow.
What follows are compounds tested against human ether-à-go-go-related gene (hERG) potassium channel (human, UniProt Q12809) (assay: primary screen, population patch clamp on CHO cells stably expressing hERG).
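Further: peak tail current of the secondary pulse compared with the same well before compound.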

human ether-à-go-go-related gene (hERG) potassium channel, sequence (Q12809 whole entry, looked up): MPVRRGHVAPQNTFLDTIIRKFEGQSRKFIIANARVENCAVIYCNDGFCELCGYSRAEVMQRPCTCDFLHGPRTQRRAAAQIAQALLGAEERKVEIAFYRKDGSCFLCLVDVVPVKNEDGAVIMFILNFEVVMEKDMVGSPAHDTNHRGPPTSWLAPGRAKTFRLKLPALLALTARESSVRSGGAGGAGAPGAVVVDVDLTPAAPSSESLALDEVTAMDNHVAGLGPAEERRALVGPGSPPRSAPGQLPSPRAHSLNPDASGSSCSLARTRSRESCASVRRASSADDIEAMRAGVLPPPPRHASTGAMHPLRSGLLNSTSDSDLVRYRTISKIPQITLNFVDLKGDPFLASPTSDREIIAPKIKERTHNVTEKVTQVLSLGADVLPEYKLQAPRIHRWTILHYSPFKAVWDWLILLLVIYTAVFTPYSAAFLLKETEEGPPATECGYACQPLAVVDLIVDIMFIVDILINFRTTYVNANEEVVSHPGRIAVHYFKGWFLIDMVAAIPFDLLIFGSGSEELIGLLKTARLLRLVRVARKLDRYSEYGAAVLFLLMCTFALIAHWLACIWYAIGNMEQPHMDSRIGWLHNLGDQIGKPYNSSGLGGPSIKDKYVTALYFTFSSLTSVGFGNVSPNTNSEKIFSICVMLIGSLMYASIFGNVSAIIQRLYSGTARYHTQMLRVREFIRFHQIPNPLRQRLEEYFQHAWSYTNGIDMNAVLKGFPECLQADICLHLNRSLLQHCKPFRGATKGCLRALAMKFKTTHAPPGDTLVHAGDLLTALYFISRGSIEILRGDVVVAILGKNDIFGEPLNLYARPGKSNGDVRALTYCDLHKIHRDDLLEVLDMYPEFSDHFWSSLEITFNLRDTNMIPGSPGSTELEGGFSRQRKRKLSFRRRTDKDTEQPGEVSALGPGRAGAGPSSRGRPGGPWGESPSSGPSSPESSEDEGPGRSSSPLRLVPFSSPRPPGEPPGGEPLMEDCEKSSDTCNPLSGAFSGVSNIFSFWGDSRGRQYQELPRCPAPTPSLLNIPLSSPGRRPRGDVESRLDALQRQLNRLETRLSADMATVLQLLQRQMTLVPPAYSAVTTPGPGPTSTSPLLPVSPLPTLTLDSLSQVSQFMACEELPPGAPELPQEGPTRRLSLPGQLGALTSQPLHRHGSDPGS

Row | Compound | hERG current change (%, negative = inhibition) at 10uM [%]
1 | COc1cc(/C=C/C(=O)OCC(=O)Nc2sc3c(c2C#N)CCC(C)C3)ccc1OCC#N (centres unmarked) | 12.1
2 | Cc1cc(=O)[nH]c(SCC(=O)Nc2ccccc2C#N)c1C#N | 3.53
3 | CCN(CC)CCN(Cc1cc2cc3c(cc2[nH]c1=O)OCCO3)C(=O)NC1CCCCC1 | -28.7
4 | COc1ccc(CNC(=O)C2(CC(=O)NC(C)(C)C)CCCC2)cc1 | 5.71
5 | COc1cc(CC(=O)OCC(=O)Nc2ccc(Cl)c(S(=O)(=O)N(C)C)c2)cc(OC)c1OC | -28.6
6 | Cc1ccc(C(=O)c2c[nH]c(C(=O)NCCCN3CCOCC3)c2)cc1 | -30.5
7 | N#C/C(=C\c1ccc(-c2ccc(C(=O)O)cc2)o1)C(=O)Nc1ccc(F)cc1 | 25.6
8 | CC1(C)[C@@H](O)CC[C@]2(C)C3C(O)C=C4[C@H]5C[C@@](C)(CO)CC[C@]5(C)CC[C@]4(C)[C@]3(C)CC[C@@H]12 (some centres unmarked) | 17.7
9 | CN1CCc2c(sc(NC(=O)c3ccc([N+](=O)[O-])o3)c2C(N)=O)C1.Cl | 4.98
10 | O=C(O)c1ccc(CNc2ccccc2C(=O)O)cc1 | 16
11 | CCc1ccc(CN(C)CCc2ccccn2)cc1 | -62.6
12 | COC(=O)C1=C(c2ccc(C(C)=O)cc2)C[C@@H]2CC[C@H]1N2C(=O)NCC1CC1 | -6.52
13 | COc1cccc(N2CCN(C(=S)NCc3ccco3)CC2)c1 | -12.5
14 | CCOC(=O)N1CCN(CCC(=O)Nc2ccccc2OC)CC1 | -0.821
15 | CCN(CC)CCNC(=O)COc1ccc(Cl)cc1Cl | -41.8
16 | O=C(Nc1ccccc1[N+](=O)[O-])c1nc[nH]c1C(=O)NCCO | 4.71
17 | CC1=CC(C)(C)NC(=S)N1c1ccc(C)cc1 | 18.8
18 | O=c1c2c(nc3cc(-c4ccccc4Cl)[nH]n13)CCS2 | 15.9
19 | Cc1cccc(NC(=O)CCS(=O)(=O)c2ccc3c(c2)NC(=O)CS3)n1 | 12.1
20 | Cl.Oc1ccc(Nc2ncnc3scc(-c4ccccc4)c23)cc1 | 0.696
21 | COc1ccc2[nH]c(=O)c(-c3nnn(-c4ccc(Cl)nc4)n3)cc2c1 | 11.9
22 | CCOC(=O)CNC(=S)N(CCCN1CCCCC1)Cc1cccs1 | -62.6
23 | CN(C)S(=O)(=O)c1cc(NC(=O)Cn2ccsc2=N)ccc1Cl.Cl | -56.3

Row | Compound | hERG current change (%, negative = inhibition) at 10uM [%]
24 | CCOc1cc2c3c(c1)C1(C(=O)N3C(C)(C)CC2C)C(C#N)=C(N)N2C(=C1C#N)Nc1ccccc12 (centres unmarked) | 2.65
25 | Cc1cc(C)c(S(=O)(=O)N2CCN(C(=O)CN3C(=O)NC4(CCCC4)C3=O)CC2)c(C)c1 | 7.42
26 | CCN(CC)c1ccc(C(=O)NNC(=O)CN2C(=O)NC3(CCCCC3)C2=O)cc1 | -1.43
27 | CCOCCCNC(=O)CCN1C(=O)c2ccccc2Sc2ncccc21 | 26.2
28 | COc1ccc2nc(SCC(=O)NN)cc(C)c2c1 | -6.7
29 | CC(=O)Nc1cccc(OCC(=O)Nc2ccc(F)cc2)c1 | -42.8
30 | CNC(=O)C(=O)NCC1OCCCN1S(=O)(=O)c1ccc(F)cc1C (centres unmarked) | 12
31 | O=[N+]([O-])c1cccc(-n2cc3ccc([N+](=O)[O-])cc3n2)c1 | 1.68
32 | CC(=O)COc1ccc2c(-c3ccccc3)cc(=O)oc2c1 | -1.91
33 | O=C(NCCC1CCCC1)c1cccs1 | -9.54
34 | CC(C)CC(NC(N)=O)C(=O)NCCc1ccc(Cl)cc1 (centres unmarked) | 27.5
35 | CC(C)=C(C#N)c1nc2ccccc2s1 | -9.82
36 | COc1ccc(NC(=O)Cn2c(NCC(C)O)nc3ccccc32)cc1Cl (centres unmarked) | 15.6
37 | CN1CCN(CCCNC(=O)Nc2cccc3ccccc23)CC1 | 1.38
38 | O=C(COc1ccc(S(=O)(=O)NC2CCCCC2)cc1)NC1CCCC1 | -8.19
39 | COc1ccc(C(=O)OCC(=O)c2ccc(C)c(S(=O)(=O)N3CCOCC3)c2)cc1OC | -45.8
40 | N#Cc1ccc(-c2nc3cc(Cl)ccc3c(=O)n2O)cc1 | 7.51
41 | CCOC(=O)c1c(-c2ccc(OC)cc2)oc2ccc(OCC(N)=O)cc12 | 16
42 | COc1ccc(C2CC3(CC(C)(C)NC(=S)N3)Oc3cc(O)cc(C)c32)cc1OC (centres unmarked) | 17.1
43 | COc1ccc(NC(=O)CN(C)C(=O)c2ccccc2OC)cc1 | 18.4
44 | CCOc1ccc(OCC(=O)NCCc2nc3ccccc3[nH]2)cc1 | -34.6
45 | COc1ccc(C2c3ccc4ccccc4c3Oc3ncn(CCN4CCOCC4)c(=N)c32)cc1 (centres unmarked) | -74.1
46 | Cc1c(C(=O)Nc2ccccc2)sc2ncn(CC(=O)N3CCCCC3)c(=O)c12 | -16

Row | Compound | hERG current change (%, negative = inhibition) at 10uM [%]
47 | CCOC(=O)N1CCN(C(=O)CSc2ccc(Cl)cc2)CC1 | -26.7
48 | Nc1ccc(C2(c3ccc(N)cc3)C(=O)Nc3ccccc32)cc1 | -0.0135
49 | COc1ccc(CNC(=O)CN(c2ccc(OC)cc2)S(=O)(=O)c2c(C)[nH]c(=O)[nH]c2=O)cc1 | 17
50 | O=C(Nc1ccccc1N1CCCC1)c1cccnc1Cl | 4.72
51 | C=CCOc1ccccc1CNc1ccc2[nH]c(=O)[nH]c2c1 | -0.534
52 | Cc1cc(/C=C2/SC(=O)N(CC(=O)N3CCOCC3)C2=O)c(C)n1-c1ccccc1F | -3.42
53 | CCOC(=O)C1=C(CNC2CCCCC2)NC(=O)NC1c1cc(C)ccc1C (centres unmarked) | 8.55
54 | COc1ccccc1NC(=O)Cn1nc(C)n2cccc2c1=O | 11.4
55 | COc1ccccc1CNC(=O)c1ccc(NS(C)(=O)=O)cc1 | -10.6
56 | CCOc1cc(-c2nc(-c3ccc(C)nc3OCC)no2)cc(OCC)c1OCC | 17.7
57 | CCc1ccc(C2c3[nH]c4ccccc4c3CCN2C(=O)CNC(N)=O)cc1 (centres unmarked) | -12.2
58 | Cc1ccc(NS(=O)(=O)c2cccs2)c(C)c1 | -2.42
59 | O=C(CCC1CCN(Cc2ccccc2O)CC1)NC1CC1 | -23.7
60 | COc1ccc(NS(=O)(=O)c2cccc(C(=O)NCC(c3ccco3)N3CCCCC3)c2)cc1 (centres unmarked) | -31.5
61 | CSc1ncccc1C(=O)OCC(=O)NC1CCCC1 | 2.56
62 | Cc1cc(C)cc(NC(=O)N2CCCN(c3c(Cl)cncc3Cl)CC2)c1 | 17.4
63 | CCN(CC)C(=O)CSc1nnc(-c2ccncc2)n1N | 13.4
64 | Cc1cnc(C(=O)OCC(=O)NCc2cccc(Cl)c2)cn1 | 0.546
65 | O=C(NC1CCCCC1)c1cc(C2CC2)on1 | 12.4
66 | O=C(Nc1cccnc1Cl)C1c2ccccc2Oc2ccccc21 | -0.399
67 | Cc1ccc(S(=O)(=O)NCCSCc2ccccc2)cc1 | -6.05
68 | Cc1cc2ccccc2n2c(SCC(=O)Nc3ccc(S(=O)(=O)N4CCC(C)CC4)cc3)nnc12 | 13.3
69 | CCN(CC)CCNC(=O)/C(=C/c1cn(C)c2ccccc12)NC(=O)c1ccc(OC)c(OC)c1 | 3.9

Row | Compound | hERG current change (%, negative = inhibition) at 10uM [%]
70 | CCOC(=O)N1CCN(C(=O)C2CCN(S(=O)(=O)c3ccc(OC)cc3)CC2)CC1 | 9.63
71 | CC(C)(CC(=O)O)CC(=O)Nc1ccc(Cl)c(Cl)c1 | 14.1
72 | CC(C)(C)c1nnc(NC(=O)c2cccs2)s1 | 27.7
73 | Cc1n[nH]c(=O)nc1N/N=C/c1ccc(O)c([N+](=O)[O-])c1 | -11.8
74 | Cc1cc(C)c(NC(=O)c2oc3ccccc3c2COc2ccccc2)c(C)c1 | 11.7
75 | N/C(=N\O)c1ccccc1-n1cccc1 | 25.7
76 | O=c1[nH]c([N+](=O)[O-])nn1C(c1ccccc1)c1ccccc1 | -13.7
77 | CC1(C)Cc2nc(Cl)c(C(N)=O)cc2CO1 | -2.25
78 | O=C(O)COc1ccc(/C=C/C(=O)c2ccc(C3CCCCC3)cc2)cc1 | 18.2
79 | COc1ccccc1CN1CC(C(=O)NCCC2=CCCCC2)CCC1=O (centres unmarked) | -3.06
80 | C/C(=C/c1oc2ccc(O)cc2c1[N+](=O)[O-])N(C)C | -6.14
81 | CCOC(=O)c1oc2ccccc2c1NC(=O)c1ccc(S(=O)(=O)N2CCCC2)cc1 | -8.98
82 | CC(NC(=O)c1ccc(F)cc1)c1ccc2c(c1)CCCC2 (centres unmarked) | 11
83 | CCn1c(CCC(=O)N(C)CC(=O)Nc2cccc(F)c2)nc2cc(S(=O)(=O)N(C)C)ccc21 | -19.3
84 | COc1ccccc1NC(=S)NC(=O)c1ccc(-c2ccc(Cl)cc2)o1 | 5.2
85 | O=C(CCn1cccn1)N1CCCC(N2CCN(c3cccc(C(F)(F)F)c3)CC2)C1 (centres unmarked) | -53.6
86 | O=C(NCc1ccccn1)Nc1cc(Cl)ccc1Cl | -16.9
87 | Cn1c(CCNC(=O)C(C)(C)C)nc2ccccc21 | 16.4
88 | O=C(COC(=O)Cc1ccccc1)NC12CC3CC(CC(C3)C1)C2 | 4.91
89 | Cn1nc([N+](=O)[O-])nc1Sc1nnnn1-c1ccc(C(=O)O)cc1 | 20.4
